From the supplement of paper PMC9446081
About 220 (0.56%) of roughly 39,000 compounds showed activity. The list shows a part of the results.

These molecules were tested on Escherichia coli K-12 BW25113 (assay: relative growth (OD600 normalised to plate interquartile mean) (fraction); higher = less growth inhibition, active = 0.2 or less). Conditions: 50 µM; LB; incubation time: overnight (16-24 h).
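Note: static incubation at 37 °C against the wild-type strain, values averaged over two biological replicates.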

| SMILES | relative growth |
| --- | --- |
| COCC(=O)Nc1ccc2c(c1)OC[C@H](C)N(Cc1ccccc1F)C[C@@H](C)[C@H](OC)CN(C)C2=O | inactive: 1.02 |
| NC(=O)NC(CCC(=O)O)C(=O)O (stereo unspecified) | inactive: 1.06 |
| C[C@@H]1CCCCO[C@@H](CN(C)Cc2ccc(Cl)c(Cl)c2)[C@@H](C)CN([C@@H](C)CO)C(=O)c2cc(NS(=O)(=O)c3ccc(F)cc3)ccc2O1 | inactive: 0.958 |
| Cn1cnc(S(=O)(=O)N[C@H]2C=C[C@H](CC(=O)NCC3CC3)O[C@H]2CO)c1 | inactive: 1.03 |
| COCC(=O)Nc1ccc2c(c1)CC(=O)N2C | inactive: 0.991 |
| C[C@@H]1CN([C@H](C)CO)C(=O)c2cc(-c3ccc(C(=O)N(C)C)cc3)cnc2O[C@H]1CN(C)C(=O)c1ccncc1 | inactive: 1.01 |
| C[C@@H]1CN([C@H](C)CO)C(=O)Cc2cc(NS(C)(=O)=O)ccc2O[C@@H]1CN(C)C(=O)Nc1ccc(F)cc1 | inactive: 0.928 |
| C[C@@H]1CCCCO[C@H](CN(C)S(=O)(=O)c2cccs2)[C@@H](C)CN([C@@H](C)CO)C(=O)c2cc(NS(=O)(=O)c3cn(C)cn3)ccc2O1 | inactive: 0.989 |
| C[C@@H]1CCCCO[C@H](CN(C)C(=O)c2ccccc2)[C@H](C)CN([C@@H](C)CO)C(=O)c2cc(NC(=O)CCCCCC(=O)Nc3ccccc3N)ccc2O1 | inactive: 0.982 |
| C[C@@H]1CN([C@@H](C)CO)C(=O)CCCn2cc(nn2)CO[C@H]1CN(C)C(=O)Nc1cccc2ccccc12 | inactive: 0.994 |
| CC(C)NC(=O)Nc1ccc2c(c1)C(=O)N([C@@H](C)CO)C[C@H](C)[C@H](CN(C)S(=O)(=O)c1ccc(Cl)cc1)O2 | inactive: 1.04 |
| CN(C)CCCNC(=O)C[C@@H]1CC[C@@H]2[C@H](COc3ccc(NC(=O)NC4CCCC4)cc3C(=O)N2C)O1 | inactive: 1.02 |
| C[C@@H]1CN([C@H](C)CO)C(=O)c2cc(NC(=O)Cc3ccccc3)ccc2O[C@@H]1CN(C)S(C)(=O)=O | inactive: 1.04 |
| C[C@@H]1CCCCO[C@@H](CN(C)Cc2ccc(C(=O)Nc3ccccc3N)cc2)[C@H](C)CN([C@H](C)CO)C(=O)c2cc(N(C)C)ccc2O1 | inactive: 0.992 |
| O=C(C[C@@H]1CC[C@H](NC(=O)c2cnccn2)[C@@H](CO)O1)NCc1ccccc1F | inactive: 0.993 |
| Cc1noc(C)c1S(=O)(=O)Nc1ccc2c(c1)CC(=O)N([C@@H](C)CO)C[C@@H](C)[C@@H](CN(C)Cc1ccc(Oc3ccccc3)cc1)O2 | inactive: 0.994 |
| CCOC(=O)[C@H]1CSCCN1 | inactive: 0.895 |
| C[C@H](CO)N1C[C@H](C)[C@@H](CN(C)S(=O)(=O)c2cn(C)cn2)Oc2ccc(NS(=O)(=O)c3cn(C)cn3)cc2CC1=O | inactive: 1.02 |
| Cc1ccc(S(=O)(=O)Nc2ccc3c(c2)C(=O)N([C@@H](C)CO)C[C@H](C)[C@@H](CN(C)Cc2ccncc2)OCCCC[C@@H](C)O3)cc1 | inactive: 0.97 |
| O=C(C[C@H]1CC[C@H]2[C@@H](COC[C@H](O)CN2C(=O)Nc2ccc(C(F)(F)F)cc2)O1)NCCc1ccncc1 | inactive: 0.791 |
| Cc1noc(C)c1NC(=O)Nc1cccc2c1O[C@@H](CN(C)Cc1ccc(C(F)(F)F)cc1)[C@@H](C)CN([C@@H](C)CO)C2=O | inactive: 0.981 |

| SMILES | relative growth |
| --- | --- |
| O=C(/C=C/c1ccc(O)c(O)c1)O[C@@H]1[C@H](O)C[C@@](O)(C(=O)O)C[C@H]1OC(=O)/C=C/c1ccc(O)c(O)c1 | inactive: 1 |
| C[C@H](CO)N1C[C@H](C)[C@H](CN(C)Cc2ccc(C(F)(F)F)cc2)Oc2ccc(NS(C)(=O)=O)cc2C1=O | inactive: 1.01 |
| O=C(N/N=C/[C@H](O)[C@H](O)[C@@H](O)[C@@H](O)CO)c1ccccn1 | inactive: 0.998 |
| CC(C)C[C@H](NC(=O)[C@H](CCCCN)NC(=O)[C@H](CCCNC(=N)N)NC(=O)[C@H](C)NC(=O)[C@H](CO)NC(=O)[C@H](CCCCN)NC(=O)[C@H](CCCNC(=N)N)NC(=O)[C@H](C)NC(=O)CNC(=O)[C@@H](NC(=O)[C@H](Cc1ccccc1)NC(=O)CNC(=O)CNC(=O)[C@@H](N)Cc1ccccc1)[C@@H](C)O)C(=O)N[C@@H](C)C(=O)N[C@@H](CC(N)=O)C(=O)N[C@@H](CCC(N)=O)C(=O)O | inactive: 0.991 |
| COC(=O)CCCCCCC(=O)N/N=C/[C@@H](O)[C@H](O)[C@H](O)CO | inactive: 0.954 |
| COc1cncc(O)c1 | inactive: 1.04 |
| Cc1ccc(S(=O)(=O)N(C)C[C@H]2Oc3c(NS(C)(=O)=O)cccc3C(=O)N([C@H](C)CO)C[C@@H]2C)cc1 | inactive: 0.993 |
| CC(C)(C)C(=O)Nc1c[nH]c(=O)[nH]c1=O | inactive: 0.961 |
| COC(=O)Cn1nc(N)c2ccccc21 | inactive: 0.988 |
| COc1ccc(CN(C)C[C@@H]2OCCCC[C@H](C)Oc3ccc(NC(=O)CCC(F)(F)F)cc3C(=O)N([C@H](C)CO)C[C@H]2C)cc1 | inactive: 0.943 |
| C[C@H]1CN([C@@H](C)CO)C(=O)c2cc(NC(=O)CCCCCC(=O)Nc3ccccc3N)ccc2O[C@H]1CN(C)Cc1ccc(-c2ccccc2)cc1 | inactive: 1.03 |
| C[C@H](CO)N1C[C@H](C)[C@H](CN(C)S(=O)(=O)c2cn(C)cn2)Oc2ccc(NC(=O)c3ccncc3)cc2C1=O | inactive: 0.97 |
| Cc1ncc(CO)c(CN)c1O | inactive: 1.01 |
| CC(C)=CCc1c2c(c3occ(-c4ccc(O)c(O)c4)c(=O)c3c1O)C=CC(C)(C)O2 | inactive: 1.01 |
| O=C(C[C@@H]1CC[C@@H]2[C@H](COC[C@@H](O)CN2C(=O)Nc2cccc(F)c2)O1)NCCCN1CCOCC1 | inactive: 0.955 |
| COc1ccc(CN2C[C@@H](C)[C@H](OC)CN(C)C(=O)c3ccc(NC(=O)c4nc5ccccc5s4)cc3OC[C@@H]2C)cc1 | inactive: 1.03 |
| C[C@H]1CN([C@@H](C)CO)C(=O)c2cc(NC(=O)CCC(F)(F)F)ccc2O[C@H]1CN(C)S(=O)(=O)c1cn(C)cn1 | inactive: 0.989 |
| COc1cc(NS(=O)(=O)c2ccc(N)cc2)ncn1 | inactive: 0.874 |
| C[C@@H]1CN([C@H](C)CO)C(=O)c2cc(C#Cc3cccc(F)c3)cnc2O[C@@H]1CN(C)C(=O)C1CCOCC1 | inactive: 1.02 |
| CC(=O)N[C@H]1[C@H](Oc2nc3cc(C)ccc3o2)O[C@H](CO)[C@@H](O)[C@@H]1O | inactive: 0.969 |
| N#Cc1nn(-c2ccccc2)c(=O)[nH]c1=O | inactive: 0.952 |

| SMILES | relative growth |
| --- | --- |
| Cc1noc(C)c1S(=O)(=O)N(C)C[C@@H]1Oc2ccc(NS(=O)(=O)c3ccccc3)cc2C(=O)N([C@@H](C)CO)C[C@@H]1C | inactive: 1.02 |
| Cc1noc(C)c1NC(=O)N(C)C[C@H]1OCCCC[C@H](C)Oc2ccc(NC(=O)Nc3ccc(F)cc3)cc2C(=O)N([C@H](C)CO)C[C@@H]1C | inactive: 1 |
| CCS(=O)(=O)N1C[C@]2(CN(Cc3cc(ccc3F)F)C2)c2c(n(c3cc(ccc23)OC)C)[C@@H]1CO | inactive: 1 |
| C[C@H]1CCCCO[C@H](CN(C)C(=O)Nc2cccc3ccccc23)[C@@H](C)CN([C@@H](C)CO)C(=O)c2cc(NC(=O)c3ccccc3)ccc2O1 | inactive: 1.05 |
| COc1cccc(-c2cnc3c(c2)C(=O)N([C@H](C)CO)C[C@H](C)[C@H](CN(C)S(=O)(=O)c2cn(C)cn2)O3)c1 | inactive: 1.01 |
| C[C@@H]1CN([C@H](C)CO)C(=O)c2cc(NC(=O)CCCCCC(=O)Nc3ccccc3N)ccc2O[C@@H]1CN(C)Cc1ccc(C(F)(F)F)cc1 | inactive: 1 |
| Cc1ccc(S(=O)(=O)N(C)C[C@H]2Oc3ccc(NC(=O)Nc4cccc5ccccc45)cc3C(=O)N([C@H](C)CO)C[C@@H]2C)cc1 | inactive: 1.02 |
| Cc1cc(C)nc(NS(=O)(=O)c2ccc(N)cc2)n1 | inactive: 1.09 |
| COC(=O)c1ccc(O)c(/C=N/N(CCO)C2=NS(=O)(=O)c3ccccc32)c1 | inactive: 0.868 |
| C[C@H](CO)N1C[C@H](C)[C@@H](CN(C)Cc2ccc(C(F)(F)F)cc2)OCCCC[C@H](C)Oc2ccc(NC(=O)Cc3ccccc3)cc2C1=O | inactive: 0.991 |
| COc1ccc(S(=O)(=O)N(C)C[C@@H]2Oc3ccc(NC(=O)Nc4c(C)noc4C)cc3CC(=O)N([C@H](C)CO)C[C@H]2C)cc1 | inactive: 1 |
| CO[C@H]1CN(C)C(=O)c2ccc(NC(=O)CC(F)(F)F)cc2OC[C@H](C)N(S(=O)(=O)c2cn(C)cn2)C[C@H]1C | inactive: 0.985 |
| CN(C(=O)CN(CCO)CC(=O)N(C)C(C)(C)Cc1ccccc1)C(C)(C)Cc1ccccc1 | inactive: 0.878 |
| Cc1noc(C)c1NC(=O)Nc1cccc2c1O[C@@H](CN(C)Cc1ccc(C(=O)Nc3ccccc3N)cc1)[C@H](C)CN([C@@H](C)CO)C2=O | inactive: 1.02 |
| COc1ccccc1C#Cc1ccc2c(c1)O[C@H](CN(C)C(C)=O)[C@@H](C)CN([C@@H](C)CO)S2(=O)=O | inactive: 0.984 |
| C[C@@H]1CN([C@@H](C)CO)C(=O)c2cc(NC(=O)Cn3cnnn3)ccc2O[C@H]1CN(C)Cc1ccc(Oc2ccccc2)cc1 | inactive: 0.993 |
| O=C(Cn1ccc([N+](=O)[O-])n1)N1CCOCC1 | inactive: 0.961 |
| C[C@@H]1CN([C@@H](C)CO)C(=O)c2cc(NS(=O)(=O)c3ccc(F)cc3)ccc2O[C@H]1CN(C)CC1CC1 | inactive: 0.994 |
| COc1ccc(NC(=O)Nc2ccc3c(c2)CC(=O)N([C@H](C)CO)C[C@H](C)[C@@H](CN(C)S(=O)(=O)c2c(C)noc2C)O3)cc1 | inactive: 1.02 |
